Measurements taken from PMC4623595 (Molecular cell, 2015).

Molecular target: the molecule itself
Assay: SEC-MALS

B1: Hsp104 lacking the NTD (Hsp104^ΔN) (domain or fragment)
chain: not shown
stoichiometry N: 6
